According to PubChem BioAssay AID488969 (Vanderbilt High Throughput Screening Facility, 2010):
Whole data set: some 110,000 compounds, median “z-score” near -0.1, cut for the highest 2% near 2. The list shows a part of the results. Calls of active or inactive are those of the source.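 The calls were made as follows: active = z-score in the third read window above 3 or below -3; inactive = the rest.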

target: Metabotropic glutamate receptor 8 (Rattus norvegicus) (UniProt P70579); test: mGluR8 Gi/Go-coupled signaling modulation – cell-based, rat, thallium flux, HTS, primary screen (AID 488969); conditions: HEK293 rat mGluR8, GIRK (G protein-gated inwardly rectifying potassium channel) thallium flux, FluoZin2; at 10 µM; stronger effect = higher value; submaximal glutamate (EC20) added with thallium
Chain of UniProt P70579 (P70579 whole entry, looked up): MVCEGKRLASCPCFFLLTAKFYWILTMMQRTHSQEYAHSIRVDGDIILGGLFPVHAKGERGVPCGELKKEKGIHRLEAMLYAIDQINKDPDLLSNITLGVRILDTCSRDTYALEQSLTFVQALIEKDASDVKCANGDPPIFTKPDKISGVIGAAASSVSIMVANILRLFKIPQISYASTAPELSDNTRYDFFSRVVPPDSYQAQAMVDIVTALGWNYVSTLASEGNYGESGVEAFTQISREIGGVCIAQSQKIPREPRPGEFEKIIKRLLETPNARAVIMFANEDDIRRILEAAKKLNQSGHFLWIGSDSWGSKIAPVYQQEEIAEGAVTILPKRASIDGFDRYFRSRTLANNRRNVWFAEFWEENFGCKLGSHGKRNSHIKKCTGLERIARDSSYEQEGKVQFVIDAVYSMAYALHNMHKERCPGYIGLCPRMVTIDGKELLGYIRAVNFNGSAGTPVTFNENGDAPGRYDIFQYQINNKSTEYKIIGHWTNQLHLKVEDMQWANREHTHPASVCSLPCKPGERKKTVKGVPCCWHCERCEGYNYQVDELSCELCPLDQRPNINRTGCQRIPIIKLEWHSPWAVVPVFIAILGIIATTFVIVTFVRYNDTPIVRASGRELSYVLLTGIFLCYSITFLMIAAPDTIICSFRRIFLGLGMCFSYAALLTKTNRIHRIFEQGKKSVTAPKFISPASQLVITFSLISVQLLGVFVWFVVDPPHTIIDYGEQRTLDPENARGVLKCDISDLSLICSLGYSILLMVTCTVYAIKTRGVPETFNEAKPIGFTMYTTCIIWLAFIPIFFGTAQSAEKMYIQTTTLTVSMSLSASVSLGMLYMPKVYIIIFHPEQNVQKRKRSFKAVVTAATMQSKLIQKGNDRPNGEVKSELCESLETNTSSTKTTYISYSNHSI

Row | SMILES | z-score
1 | CC(=O)c1ccc(OCC(O)CN2CCN(CCN3C(=O)c4cccc5cccc(c45)C3=O)CC2)cc1 (stereo unspecified) | -0.766
2 | CC(C)NC(=O)c1cnn2c1NC(c1cccs1)CC2C(F)(F)F (stereo unspecified) | 0.0459
3 | O=C(OCC(=O)N1CCCC1)c1ccccc1OCc1ccccc1 | -0.212
4 | COC(=O)CNc1nc(OC)nc(N(C)C)n1 | 0.391
5 | CCC(=O)N1CCN(C(=O)CC)C1c1ccccc1 | 0.224
6 | CCN1CCN(CCNC(=O)C2CCCN(Cc3nc(-c4cccc(Cl)c4)oc3C)C2)CC1 (stereo unspecified) | -0.134
7 | O=C1CN(C(=O)c2ccc(Br)o2)C(c2ccccc2)c2cc(Cl)ccc2N1 (stereo unspecified) | -0.83
8 | O=C(c1cccs1)N1N=C(c2ccccc2)CC1c1ccccc1 (stereo unspecified) | -0.101
9 | c1ccc2c(CN3CCCCC3)csc2c1 | 0.275
10 | CCc1[nH]nc2c1C(c1ccsc1)C(C#N)=C(N)O2 (stereo unspecified) | -0.447
11 | CCOc1cc(CNC2CCCC2)cc(Cl)c1OCc1ccccc1 | 1.32
12 | O=C(NC1CCCC1)C1C2C=CC(C2)C1C(=O)N1CCOCC1 (stereo unspecified) | -0.0834
13 | CCOc1ccc(Cl)cc1CNCCNCC(C)O (stereo unspecified) | 2.17
14 | Cc1cccc(NC(=O)NCCc2c[nH]c3ccccc23)c1 | 0.555
15 | COc1ccc(OC)c(N(CC(=O)NCCSc2ccccc2)S(C)(=O)=O)c1 | 0.337
16 | Cc1snc(SCC(=O)c2ccc(Cl)cc2)c1C#N | -0.288
17 | Cn1c(/C=C/N2CCOCC2)c(C(=O)c2ccc(Br)cc2)c(=O)n(C)c1=O | 0.29
18 | CCOC(=O)COc1ccc(Br)cc1/C=C\c1[nH]c(=O)[nH]c(=O)c1[N+](=O)[O-] | -0.177
19 | CC(C)(C)NC(=O)COC(=O)c1cc(Br)ccc1Cl | -0.0444

Row | SMILES | z-score
20 | CCC1(C(=O)O)NC(c2cc(OC)ccc2O)C2C(=O)N(Cc3ccccc3)C(=O)C21 (stereo unspecified) | 1.21
21 | Cc1cc(C)c(C#N)c(SCC(=O)NC2CC2)n1 | -0.163
22 | CC1CCCCN1c1cc(C#N)c(C#N)cc1[N+](=O)[O-] (stereo unspecified) | 0.23
23 | Cc1ccccc1C(=O)N1CCc2cc(-c3nc(NC(=O)Cc4ccc5c(c4)OCO5)sc3C)ccc21 | -0.101
24 | CCOC(=O)C1CCCN(Cc2nc(N)nc(Nc3ccc(OC)cc3)n2)C1 (stereo unspecified) | 0.0187
25 | CCOC(=O)C1CCN(S(=O)(=O)c2ccc(-c3nc4ccccc4s3)s2)CC1 | 0.833
26 | O=C(NNC(=S)Nc1ccc(Cl)cc1Cl)c1ccc(N2CCOCC2)c([N+](=O)[O-])c1 | 0.0331
27 | O=C(CSc1cn(CCNC(=O)c2ccc3ccccc3c2)c2ccccc12)NCc1ccco1 | 0.305
28 | O=C(Nc1ccc2c(c1)OCO2)c1cccc(F)c1 | -0.0537
29 | O=S(=O)(c1ccccc1)N1CCN(c2nnnn2-c2ccccc2)CC1 | -0.524
30 | CC(=O)NCc1cn2c(C)csc2n1 | 0.79
31 | O=C1CCCN1C(=O)CCC(=O)N1CCCC1=O | 0.606
32 | O=[N+]([O-])c1ccc(-c2nnc(CSc3nc(-c4ccccc4)nc4ccc(F)cc34)o2)cc1 | 0.0904
33 | COc1cc(OC)cc(-c2nnc(SCC(=O)NCc3cccs3)o2)c1 | -0.202
34 | COc1ccc(NS(=O)(=O)c2ccc(N3CCOCC3)c(NC(=O)c3ccc(OC)cc3)c2)cc1 | -0.352
35 | Cc1cc2ccccc2n2c(SCC(=O)N3CCc4ccccc4C3)nnc12 | 0.115
36 | O=C(CN1CCCCC1)Nc1cccc(-n2cnnn2)c1 | 1.36
37 | COc1ccc(OCc2nnc(SCC(N)=O)n2N)cc1 | -0.141
38 | COc1ccccc1Cn1c(CCCO)nc2ccccc21 | 0.503

Row | SMILES | z-score
39 | O=C(CCSc1ccccc1)NCc1cccnc1 | -0.109
40 | COc1ccc(/C=N/Nc2nc3ccccc3o2)cc1OC | -0.0972
41 | CCn1cc(CNC(=O)c2ccc(Cl)c([N+](=O)[O-])c2)c(C)n1 | -0.0712
42 | C=CCNc1nc(N)c(C(=O)Nc2cc(C)on2)s1 | 0.122
43 | COc1ccc(Cn2c(C)c(C)c(C#N)c2NC(=O)Nc2cccc(C)c2)cc1 | -0.0908
44 | Cc1ccc(SCCN2C(=O)NC(C)(C)C2=O)cc1 | 0.0729
45 | O=C(Nc1nc2ccc(S(=O)(=O)N3CCCCC3)cc2s1)c1ccncc1 | 0.331
46 | COc1ccc2cc(CN(CC3COCCO3)S(=O)(=O)c3c(C)cc(C)cc3C)c(=O)[nH]c2c1 (stereo unspecified) | -0.447
47 | CCOc1ccc(NS(=O)(=O)c2cc(OC)ccc2OC)cc1 | -0.0217
48 | Cc1nn(CCOc2ccccc2)c(=O)n1-c1ccc(F)cc1 | 0.0778
49 | CCOc1ccc(C(C)=O)cc1N1C(=O)C2C(C1=O)C1C=CC2C12CC2 (stereo unspecified) | active: 4.92
50 | Cn1nc(C(F)(F)F)c(/C=N/OC(=O)c2ccccc2Cl)c1SCc1ccc(Cl)cc1 | -0.0559
51 | Cc1nc(C(F)(F)F)nc(Nc2ccc(Br)cc2)c1C#N | -0.188
52 | OCc1ccc(O)c2ncccc12 | 0.138
53 | CCOC(=O)Nc1ccc2c(c1)ncn2C1CCCCC1 | -0.15
54 | CCOC(=O)c1cc2ccc3ccccc3c2s1 | -0.181
55 | CC(=O)Nc1cc(-c2ccccc2)nn1Cc1ccc(Cl)cc1 | -0.00476
56 | Cc1c(NC(=O)C(C)OC(=O)c2sc3ccccc3c2Cl)c(=O)n(-c2ccccc2)n1C (stereo unspecified) | -0.273
